First the molecules themselves.
T1: UNK ZnF1-3 (human, UniProt Q9C0B0 31-174)
T1 sequence: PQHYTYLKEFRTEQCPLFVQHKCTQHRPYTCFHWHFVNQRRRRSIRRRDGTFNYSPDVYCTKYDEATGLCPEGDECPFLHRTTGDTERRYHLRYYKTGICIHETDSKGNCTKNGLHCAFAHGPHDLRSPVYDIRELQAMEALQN

B1: chr7:54823571:54823572:-_ENSG00000132432_ENST00000352861|hu_mus|hu_hu_hu_mus_False|48_98 (ssRNA)
RNA: GGGAGUUCUACAGUCCGACGAUCUCCCAUGAUAGCAAAUCCUAUUGCUGUAGCCAUGGCAAUCUUCUGGAAUUCUUUUCUGUCGGGUUUAGUGCAUCUUUUAACCAGCCGAAUUGAGUCCUUUACAAACUGCCGGCUGGGCUCCAACAGAGGAUUGAGCAUCA
B2: 30602309_30602429_1961_3pUTR_ENSG00000107951_ENST00000263063|human|control|control (ssRNA)
RNA: GGGAGUUCUACAGUCCGACGAUCCGCCACACUCCACAGCUGAUGUUUUAAUAAAGUGCCACUGAGUAUCAGACUGAUCAAACUGAAAACAUCCCAGAACUUCAGACCAGGUUAAGGGGGCCAAUGAGAAGAUCAUGAAAAGUGCAACAGAGGAUUGAGCAUCA
B3: chr17:48772226:48772227:-_ENSG00000154945_ENST00000285243|hu_hu|FALSE|FALSE (ssRNA)
RNA: GGGAGUUCUACAGUCCGACGAUCUAAGAUCAAACAAUUUGUUUACAAAAGCAACAGAUUUCAGAAUUGUGUAAAAAUCCUAAUAAUUUCAAAAUAACCUUUAUUUUUGAUACAAAAAUAAAGAUGCUAACUCCUUUAGCUCAGCAACAGAGGAUUGAGCAUCA
B4: 44118978_44121375_326_CDS_ENSG00000066135_ENST00000372396|human|control|control (ssRNA)
RNA: GGGAGUUCUACAGUCCGACGAUCCUGAGUAAAGAGGCCAGACUGCCCCGUCACCAGCUGUUGAAUGGGGGCAGGAAUGACCAAAUCAUCAAUGUCAUCAUAGGAUGCUCGUGGCUUCCACUCUUUUGGAGGAACAACCUUGGCCAACAGAGGAUUGAGCAUCA
B5: 44041996_44042116_73_3pUTR_ENSMUSG00000034342_ENSMUST00000037644|mouse|control|control (ssRNA)
RNA: GGGAGUUCUACAGUCCGACGAUCUCGGCCGCGAGCGAGGGAAUGGAGCCGGGCGAGAAGGAGGGGCCUCUCCGGCAACCACCGCCGGCGCUCGCAGCCCAGGGAGUGAGAGGGAGGCGCCCGCCCUGAGGCGCGCCCCUGCGCCAACAGAGGAUUGAGCAUCA
B6: chr6:170626544:170626545:+_ENSG00000112584_ENST00000537664|hu_mus|FALSE|FALSE (ssRNA)
RNA: GGGAGUUCUACAGUCCGACGAUCUAGGCGUACAUCCAGGGUACUUGUUUCGGUGACGCUCUGCCAGCUCGUGGAUAUUGACUAUGGUACAUAUGUGUGGGCACGUACUCCCCACAAACCCCUGCAAACCUCUUACACCCAUAACAACAGAGGAUUGAGCAUCA
B7: chr5:137527996:137527997:-_ENSG00000094880_ENST00000394886|hu_hu|motif|central (ssRNA)
RNA: GGGAGUUCUACAGUCCGACGAUCUUCUCCUAAAGCAACCAGCAUGCGAGAAUCAUUGGGUCGAAGCUGGUGGGCCCGUCGGUAAUAAUAAAGGCAGUAAAAUGGCAUCUUAAGGAUUUCAUAGGUCUGCCCGAGGCCAUACCACAACAGAGGAUUGAGCAUCA
B8: chr4:115894766:115894767:+_ENSMUSG00000028698_ENSMUST00000030464|mus_hu|mus_mus_mus_hu_True|78_108 (ssRNA)
RNA: GGGAGUUCUACAGUCCGACGAUCUUCACACGGAAAUUGUACUUCGGGUUUUCCAACGCCAGUACAAAGUCCGGCCAAACUACCCGAACAGGGUCCUCCCCCUCUCUCCUACAGAACACAACAAAAUGCCCCCGAACUUUCAAGCAACAGAGGAUUGAGCAUCA
B9: chr7:6639541:6639542:+_ENSG00000146576_ENST00000344417|hu_hu|FALSE|FALSE (ssRNA)
RNA: GGGAGUUCUACAGUCCGACGAUCGGGUGCCUUCACGCACCAGCGGAUCAAUCCAACGAGCGGGGUGAGCUCUAAGAAUCCUAUUGGCAGAUUGGCCGCAAUCGGAGUAUUUAAAAAAGUGAUGAGAAUCAACCUUGGGUCCUCCAACAGAGGAUUGAGCAUCA
B10: chr3:9412954:9412955:+_ENSG00000134077_ENST00000452837|hu_mus|hu_hu_hu_mus_False|28_28 (ssRNA)
RNA: GGGAGUUCUACAGUCCGACGAUCGGUUGAUAUCUCUUCUUUGAUGGCUGGAUUUUCAUAAUAGUCCAAGAUAUGUGAAUCUGAAGUGCUGCUGGCAUGCUUUUUCUUAACAUUUCUCUCAUCUGCUUUGUCUCCUUGUCCACACAACAGAGGAUUGAGCAUCA
B11: chr13:3599227:3599228:-_ENSMUSG00000033799_ENSMUST00000096069|mus_mus|motif|central (ssRNA)
RNA: GGGAGUUCUACAGUCCGACGAUCUCAAGUAUGAUUUUAGAAGUGGGUGCUGCCAUCUUUUAGGAUCCUUGUGCUGAAAAGCGGCAAUUAUAUAAGGACAGGUCUGUCUGGGUCAUUUAAUAACAGUGUUGCCUGAAAGUUCAUCAACAGAGGAUUGAGCAUCA
B12: chr8:98731313:98731314:+_ENSG00000147649_ENST00000336273|hu_hu|FALSE|FALSE (ssRNA)
RNA: GGGAGUUCUACAGUCCGACGAUCAAAAGCUUUUUCCUGUUUUGGACGGGUUUUAGAGGUAUUCACUGGAAGGUCUUCUCUAAUCUCUUUUUCUAAUUCUUCUGUGUCCUGUGCAGUAGAGUUAUCUUCACCUUGCUUCUUCUUCAACAGAGGAUUGAGCAUCA
B13: 2904398_2906411_340_CDS_ENSG00000004478_ENST00000001008|human|control|control (ssRNA)
RNA: GGGAGUUCUACAGUCCGACGAUCCAGACUGGAGUCAAACUUUGUGCCAUCUAAUAGCCAGCCAGUGUAGUGGACAAAGACUCGGUCCCCAAUCAUGGGCAUCUCUGUACCUGUGCCCUCUCUCUUGAUGACCUUCAGCACGCCCAACAGAGGAUUGAGCAUCA
B14: chr6:118368571:118368572:-_ENSMUSG00000030138_ENSMUST00000032237|mus_mus|FALSE|FALSE (ssRNA)
RNA: GGGAGUUCUACAGUCCGACGAUCGUCUUGCAGGUGCCGUUUCUUUUUCUUCUCAGCUUUAGGCCCACUGUGCUUCUUCCUAUGUUUCUUGUGGUCCUUGGUCUCCAUGGUGGCUAUUUAUCUACUACAAAUAAGUCUUACCUUCAACAGAGGAUUGAGCAUCA

The list shows a part of the results.

For this assay, the target named is T1, UNK ZnF1-3. In words: nsRBNS (natural sequence RNA bind-n-seq); RBNS binding buffer (assumed for nsRBNS): 25 mM Tris pH 7.5, 150 mM KCl, 3 mM MgCl2, 0.01% Triton X-100, 500 ug/ml BSA, 20 U/ml SUPERase-In, 4 C; UNK is unkempt and MSI1 is Musashi-1; names of the RNAs are library labels; protein concentration not given here; high values mean tight binding.
The molecule B1 yielded a binding signal of 0.582 enrichment R. B2 gave a binding signal of 2.32 enrichment R. Regarding B3, the binding signal is 1.23 enrichment R. Molecule B4 registered a binding signal of 1.06 enrichment R. For the molecule B5, the binding signal was determined as 0.497 enrichment R. For B6, the binding signal was found to be 1.05 enrichment R. Next, B7: 1.24 enrichment R. With B8, the binding signal was determined as 0.951 enrichment R.

Take B9: the binding signal turned out to be 2.3 enrichment R. For B10 the value was 0.394 enrichment R; for B11, 1.18 enrichment R. B12 yielded a binding signal of 0.382 enrichment R. For B13 the value was 1.09 enrichment R.

For B14, the binding signal turned out to be 0.287 enrichment R.

The values above are taken from paper PMC12136788.
